In the supplement of paper PMC4967469 one finds AUC and IC50 data, which are given here for 5 cell lines.

Common to all, as to test: Viability of human cancer cell lines after 72 h of drug (GDSC screen)
Compound in one test: O=C(Nc1ccc(OC(F)(F)F)cc1)c1sccc1NCc1ccnc2ccccc12 [OSI-930]
Particulars: top dose 10.24 µM. Here is the method: (§1)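 Human cancer cell lines in 384-well plates, medium with 10% serum, drug for 72 h over a 256-fold dose range (nine 2-fold or five 4-fold steps up to the top dose). Adherent lines were fixed and stained with the nucleic acid dye Syto60, suspension lines read with resazurin; signal relative to control wells, capped at 0 and 100%. One two-parameter sigmoid per drug and line, fitted in a mixed model over all curves with the slope shared within a line.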

Compound in a further test: COc1cc(N2CCC(C(N)=O)CC2)ccc1Nc1nc(N)c(Cl)c(Nc2ccccc2S(=O)(=O)C(C)C)n1 [HG-5-88-01]
The conditions noted are these: top dose 10 µM; top dose inferred. As for the experimental part:
as §1

Compound in another test: Cc1c(N)nc([C@H](CC(N)=O)NC[C@H](N)C(N)=O)nc1C(=O)N[C@H](C(=O)N[C@H](C)[C@@H](O)[C@H](C)C(=O)N[C@H](C(=O)NCCc1nc(-c2nc(C(=O)NCCC[S+](C)C)cs2)cs1)[C@@H](C)O)[C@@H](OC1OC(CO)C(O)C(O)C1OC1OC(CO)C(O)C(OC(N)=O)C1O)c1cnc[nH]1 [Bleomycin]
Here is the method: as §1

Compound in the next test: CCCC(=O)OCc1ccc(OC(=O)/C=C(C)/C=C/C=C(C)/C=C/C2=C(C)CCCC2(C)C)cc1 [VNLG/124]
The conditions noted are these: top dose 5.12 µM; top dose inferred. As for the experimental part:
as §1

Compound in the next test: O=C(Nc1cccc(Nc2ncc(Br)c(NCCc3cnc[nH]3)n2)c1)N1CCCC1 [BX-912]
Particulars: top dose 10.24 µM; top dose inferred. As for the experimental part:
as §1

Compound in another test: O=S(=O)(O)c1ccc2cc(N=Nc3cc(S(=O)(=O)O)c4cccnc4c3O)ccc2c1 [NSC-87877]
Particulars: top dose 16 µM; top dose inferred. Here is the method: as §1

Compound in another test: O=C(/C=C/c1ccc(CN(CCO)CCc2c[nH]c3ccccc23)cc1)NO [LAQ824]
Particulars: top dose 1.024 µM; top dose inferred. As for the experimental part: as §1

Compound in the next test: Cc1ccc(NC(=O)c2ccc(CN3CCN(C)CC3)cc2)cc1Nc1nc(-c2cccnc2)cs1 [Masitinib]
The conditions noted are these: top dose 20 µM. As for the experimental part: as §1

Compound in another test: CC/C(=C(\c1ccccc1)c1ccc(OCCN(C)C)cc1)c1ccccc1 [Tamoxifen]
The conditions noted are these: top dose 5 µM. Here is the method:
as §1

Compound in a further test: CN(NC(=O)CC(=O)NN(C)C(=S)c1ccccc1)C(=S)c1ccccc1 [Elesclomol]
Particulars: top dose 0.2 µM; top dose inferred. As for the experimental part: as §1

[1] abbreviates: top dose 50 µM, screen: GDSC drug entry 1378, top dose inferred.
Where [2] appears, read: top dose 64 µM, screen: GDSC drug entry 190.

By IC50 is meant the dose at which the fit gives 50% viability; a limit (>, <) means that the fit lies beyond the doses tested. For AUC the same curve is integrated over the 256-fold range of doses and scaled to a fraction; it is 1 without any effect and falls as sensitivity rises. For some assays here: A top dose marked as inferred comes from the curve model; the source does not state it. For some assays here: An entry number marks a drug with two screens in the source, which often give different values. A value given as a limit tells only on which side of the number the result lay.

In the case of NY (osteosarcoma, adherent), the AUC is 0.976 in the test with OSI-930; 0.972 with HG-5-88-01; 0.507 with Bleomycin (setting [1]); 0.403 with Bleomycin (setting [2]); 0.988 with VNLG/124; 0.946 with BX-912. Besides, the AUC was 0.986 with NSC-87877; 0.32 with LAQ824; 0.989 in the test with Masitinib; 0.987 with Tamoxifen; 0.791 with Elesclomol. For the same cell line, the 50% inhibitory concentration (IC50) (usually the concentration that gives 50% inhibition) with OSI-930 was more than 10.2 µM; with HG-5-88-01, more than 10 µM; in the test with Bleomycin (setting [1]) it was 3.27 µM; in the test with Bleomycin (setting [2]) it was 2.17 µM; with VNLG/124 it was more than 5.12 µM; with BX-912, more than 10.2 µM. The IC50 with NSC-87877 is more than 16 µM; with LAQ824, 0.0202 µM; in the test with Masitinib it was more than 20 µM; in the test with Tamoxifen, more than 5 µM; in the test with Elesclomol, 0.0888 µM.

RL (B-cell lymphoma, suspension): the AUC in the test with OSI-930 was 0.967; with HG-5-88-01, 0.968; with Bleomycin (setting [1]), 0.827; with Bleomycin (setting [2]) it was 0.896; in the test with VNLG/124 it was 0.967; in the test with BX-912, 0.814. Further, the AUC came out at 0.988 with NSC-87877; 0.606 with LAQ824; 0.85 with Masitinib; 0.987 in the test with Tamoxifen; 0.61 in the test with Elesclomol. The IC50 was more than 10.2 µM with OSI-930; more than 10 µM with HG-5-88-01; 27.2 µM with Bleomycin (setting [1]); more than 64 µM with Bleomycin (setting [2]); more than 5.12 µM with VNLG/124; 5.01 µM with BX-912. For the same cell line, the IC50 was more than 16 µM with NSC-87877; 0.122 µM with LAQ824; 13.2 µM with Masitinib; more than 5 µM with Tamoxifen; 0.0243 µM with Elesclomol.

“NCI-H226 (lung squamous cell carcinoma, adherent)”: the AUC was found to be 0.964 in the test with OSI-930; 0.906 with HG-5-88-01; 0.61 with Bleomycin (setting [1]); 0.86 with Bleomycin (setting [2]); 0.987 with VNLG/124; 0.851 with BX-912. Further, the AUC was determined as 0.976 with NSC-87877; 0.481 with LAQ824; 0.881 with Masitinib; 0.986 with Tamoxifen; 0.821 with Elesclomol. Further, the 50% inhibitory concentration (IC50) is more than 10.2 µM with OSI-930; more than 10 µM with HG-5-88-01; 6.38 µM with Bleomycin (setting [1]); 58.3 µM in the test with Bleomycin (setting [2]); more than 5.12 µM with VNLG/124; 8.45 µM with BX-912. Moreover, the IC50 in the test with NSC-87877 is more than 16 µM; with LAQ824, 0.0565 µM; with Masitinib it was more than 20 µM; with Tamoxifen, more than 5 µM; in the test with Elesclomol, 0.124 µM.

For the cell line “NB-4 (acute myeloid leukaemia, suspension)”, the AUC in the test with OSI-930 is 0.89; with HG-5-88-01 it was 0.856; in the test with Bleomycin (setting [1]), 0.57; with Bleomycin (setting [2]) it was 0.421; with VNLG/124 it was 0.943; in the test with BX-912, 0.414. In addition, the AUC turned out to be 0.991 with NSC-87877; 0.141 in the test with LAQ824; 0.888 in the test with Masitinib; 0.975 with Tamoxifen; 0.382 with Elesclomol. The IC50 with OSI-930 is 8.04 µM; with HG-5-88-01 it was 5.87 µM; in the test with Bleomycin (setting [1]), 4.67 µM; in the test with Bleomycin (setting [2]) it was 2.53 µM; with VNLG/124, more than 5.12 µM; with BX-912, 0.39 µM. Also, the half-maximal inhibitory concentration (IC50) with NSC-87877 is more than 16 µM; with LAQ824, 0.00669 µM; with Masitinib it was 15.5 µM; in the test with Tamoxifen, more than 5 µM; with Elesclomol, 0.00631 µM.

As for CHSA8926 (chondrosarcoma, adherent), the AUC with OSI-930 was 0.972; with HG-5-88-01, 0.799; with Bleomycin (setting [1]), 0.615; with Bleomycin (setting [2]) it was 0.845; in the test with VNLG/124, 0.98; with BX-912 it was 0.829. Besides, the AUC with NSC-87877 was 0.977; with LAQ824, 0.932; with Masitinib it was 0.972; in the test with Tamoxifen, 0.969; with Elesclomol it was 0.454. Also, the IC50 was more than 10.2 µM in the test with OSI-930; 7.34 µM in the test with HG-5-88-01; 7.4 µM in the test with Bleomycin (setting [1]); more than 64 µM with Bleomycin (setting [2]); more than 5.12 µM in the test with VNLG/124; more than 10.2 µM with BX-912. The IC50 with NSC-87877 is more than 16 µM; with LAQ824, more than 1.02 µM; with Masitinib, more than 20 µM; with Tamoxifen, more than 5 µM; with Elesclomol it was 0.00891 µM.
